Hit rate of the full screen: of about 320,000 compounds, about 7,600 (2.4%) were called active. Inconclusive means that the source gave no clear call. Such entries were picked first, then a sample of the others. Calls come from the whole dose curve; as a rule, active = well fitted activation curve with a large enough effect; inconclusive = small, poorly fitted or top-dose-only effect; inactive = no such curve, though single readings can be large or run the other way. Potencies of inconclusive entries are doubtful fits and often do not repeat.
Test: qHTS Assay for NPC1 Promoter Activators; note: nearly all actives have a fitted effect of over 60% in size;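 for activation: reporter is driven by a mutant NPC1 promoter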
Conditions: Huh7 NPC1 promoter luciferase reporter, 24 h; series mostly up to 9.22 µM
How it was run: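 Quantitative HTS used a cell-based reporter: Huh7 cells stably bearing the NPC1 promoter upstream of luciferase were treated with compounds for 24 h, and promoter activation was read as luminescence.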
Potency is the fitted concentration of half-maximal effect; tags give direction and shape of the fitted curve.

Potency, active:
CSc1nnc(N2C(=O)C(O)=C(C(=O)c3ccc(C)o3)C2c2ccc(C)cc2)s1 (stereo not drawn) 0.631 µM
N/C(=N\OC(=O)c1cccc(Cl)c1)c1ccccn1 3.16 µM
CCOC(=O)/C=C/c1ccc2oc3ccccc3c(=O)c2c1 3.55 µM
Cc1nc(N=Nc2ccc(O)cc2)n[nH]1 3.16 µM
COc1ccc(-c2nc(-c3cccnc3)no2)cc1 0.631 µM
Cn1ncc2cc(NC(=S)NC(=O)c3ccccc3)ccc21 2 µM
Cc1ccc(-n2nnc(-c3nccn3C)n2)cc1 0.501 µM
Cc1ccc(OCc2cc(C(=O)N3CCN(c4ccccc4)CC3)no2)cc1C 2.51 µM
CCCN1C(=O)c2cc(C(=O)NC3CCCCCC3)ccc2C1O (stereo not drawn) 2 µM
c1cnc2ccc(-c3ccc4ncccc4c3)cc2c1 1 µM
CCCCC(=O)Nc1cnc(NC(=O)c2cccs2)cc1C 3.16 µM
COc1ccc(Nc2ncc(F)c(N3CCOCC3)n2)cc1 1.26 µM
CC(=O)Oc1cccc(C(=O)Nc2ccc(NC(=O)c3cccs3)cc2)c1 4.47 µM

Potency, inconclusive:
CS(=O)(=O)c1ccc2nc(NC(=O)c3ccc(Cn4cc(Br)cn4)o3)sc2c1 2.51 µM [activator, partial curve]
FC(F)(F)c1cc(Cl)c2nc(-c3ccccc3)cn2c1 5.62 µM [activator, single point]
COC(=O)Cn1ncn2c(cc3oc(C)cc32)c1=O 3.16 µM [activator, single point]
CCOC(=O)c1nn(-c2ccc3ccccc3c2)cc1O 3.98 µM [activator, single point]
CCOC(=O)c1nn(-c2cccc(C)c2)cc1C(=O)c1ccccc1 3.16 µM [activator, partial curve]
CN(c1cccc(NC(=O)COc2ccccc2)c1)S(C)(=O)=O 4.47 µM [activator, partial curve]
O=C(CSc1nnc(NC(=O)c2ccccc2F)s1)Nc1ccccc1F 3.55 µM [activator, single point]
Cc1ccccc1Nc1nc(N)nc(COC(=O)c2ccccc2)n1 3.55 µM [activator, single point]
O=C(Nc1cccc(-c2ccc(N3CCOCC3)nn2)c1)c1ccc(Cl)cc1 1.41 µM [activator, partial curve]
COc1ccc(/C=C2\SC(=O)N(CCNC(=O)CCS(=O)(=O)c3ccc(C)cc3)C2=O)cc1 3.55 µM [activator, single point]
COc1ccc(C2=NN(S(C)(=O)=O)C(c3ccc4nccnc4c3)C2)cc1 (stereo not drawn) 3.98 µM [activator, single point]
O=C(Cc1ccccc1[N+](=O)[O-])NCc1ccc(Cl)cc1 3.55 µM [activator, partial curve]
COc1ccc(-c2ccc(-c3noc(C)n3)c(OC)n2)cc1 3.55 µM [activator, partial curve]
O=C(NC(=S)Nc1ccccc1)c1ccc(-c2ccccc2)cc1 3.98 µM [activator, partial curve]
COC(=O)c1sc(NC(=S)NC(=O)c2ccccc2Cl)nc1C 3.55 µM [activator, partial curve]
Oc1cc(O)cc(/C=C/c2ccc(O)c(O)c2)c1 6.51 µM [activator, single point]
Cc1c(C=O)c2cc(OCc3ccccc3)ccc2n1C 2.82 µM [activator, partial curve]
COCCn1c(C)cc(C(=O)CSc2ccc3ccccc3n2)c1C 4.47 µM [activator, single point]
O=C(COc1ccccc1)Nc1ccc(Cl)cc1Cl 3.55 µM [activator, partial curve]
CCOc1c(OC(C)=O)ccc(/C=C/c2ccc3cccc(OC)c3n2)c1[N+](=O)[O-] 5.62 µM [activator, single point]
COc1ccc(N=Cc2c(O)[nH]c3ccccc23)cc1OC 2.82 µM [activator, partial curve]
Nc1scc(-c2ccncc2)c1Cl 3.55 µM [activator, partial curve]
CCN(C(C)=O)c1nnc(CSc2nc3ccccc3s2)s1 3.16 µM [activator, single point]
Nc1nc2ccccc2n1C(=O)c1cccs1 1.12 µM [activator, single point]
Cc1ccc(-c2cc(C(=O)N3CCN(c4ccccc4O)CC3)c3ccccc3n2)cc1 3.55 µM [activator, partial curve]
Cc1ccc(NC(=S)NCCN2CCOCC2)cc1C 2.24 µM [activator, partial curve]
C(=C/c1nccc2c1[nH]c1ccccc12)/c1ccc2c(c1)OCO2 3.55 µM [activator, partial curve]
O=c1c2ccccc2nnn1CSc1nnnn1-c1ccccc1 3.55 µM [activator, partial curve]
c1csc(CSc2nnc3sc4ccccc4n23)c1 2.82 µM [activator, partial curve]
Cc1ccc(NC(=O)CN2C(=O)c3ccccc3S2(=O)=O)cc1C 3.55 µM [activator, single point]
O=C(Nc1cccc(Cl)c1N1CCCC1)c1cccc(-c2cc3ccccc3oc2=O)c1 2.24 µM [activator, partial curve]
CCOC(=O)Nc1ccc2c(C)cc(=O)oc2c1 2.82 µM [activator, partial curve]
O=C(CNC(=S)NC(=O)c1ccco1)c1ccccc1 4.47 µM [activator, partial curve]
S=C(NCCc1ccccn1)NC1CCCCC1 2.82 µM [activator, partial curve]
CC(=O)c1c(C)[nH]c(C(=O)CSc2ccc(F)cc2)c1C 0.708 µM [activator, full curve]
COc1ccc(CNC(=O)C2COc3ccccc3O2)cc1 (stereo not drawn) 3.55 µM [activator, single point]
O=C(CCn1c(=O)oc2ccccc21)N1CCc2ccccc21 3.55 µM [activator, partial curve]
CC(=O)Nc1nc(-c2ccc(Cl)cc2)ns1 3.16 µM [activator, partial curve]
Cc1ccc(C(=O)/C=C/Nc2cccc([N+](=O)[O-])c2)o1 5.62 µM [activator, single point]
Cc1ccc(-n2nc3c(n2)/C(=N/O)CC/C3=N\O)cc1 3.55 µM [activator, single point]
C(=N\Nc1nc2ccccc2[nH]1)/c1ccc2c(c1)OCCO2 5.62 µM [activator, single point]
O=C(c1ccco1)N1CCN(Cc2c(F)cccc2Cl)CC1 3.55 µM [activator, single point]
C=CCn1c(NC(=O)c2ccccc2)nc2ccccc21 3.98 µM [activator, single point]
Cc1ccc(C2=N/C(=C/N3CCOCC3)C(=O)O2)cc1 3.98 µM [activator, partial curve]
Cc1ccc(NC(=O)c2ccc(C(C)(C)C)cc2)cc1[N+](=O)[O-] 3.55 µM [activator, partial curve]

Potency, inactive:
CCN(CC)S(=O)(=O)c1cccc(N=Nc2sc(N)nc2C)c1
Cc1ccc(S(=O)(=O)Cc2ccc(C(=O)N3CCN(Cc4ccccc4)CC3)o2)cc1
CC(C)N(Cc1cc2ccccc2[nH]c1=O)C(=O)C(C)(C)C
CC1CCN(CCCNC(=O)c2cc3c(=O)n(C)c4ccccc4c3n2C)CC1
O=C(Cc1ccccc1F)Nc1nc(-c2ccc(F)cc2)cs1
COc1cc2ncnc(NCc3ccccc3F)c2cc1OC
O=C1/C(=C\c2ccc(O)c(O)c2)N=C2CCCCCN12
N#Cc1cc2c(nc1SCC(=O)O)CCCC2
O=C(CNC(=S)N(CCCN1CCOCC1)Cc1cccs1)N1CCCCCC1
CC(=O)N=c1sc2ccccc2n1C
CCc1cc(=O)oc2cc(OCC(=O)NCC3CCC(C(=O)O)CC3)ccc12 (stereo not drawn)
CC(=O)Nc1ccc(S(=O)(=O)N(C)CC(=O)Nc2nc3ccccc3[nH]2)cc1
CN(CC(=O)NC(=O)NC1CCCCC1)Cc1ccccc1
O=C(CN1C(=O)c2ccccc2C1=O)OCc1nc2ccsc2c(=O)[nH]1
COc1cc(/C=C2\SC(N3CCC(C)CC3)=NC2=O)ccc1O
COc1ccc(NC(=O)c2ccc3c(=O)n4c(nc3c2)CCCCC4)cc1
CCOC(=O)N1CCN(C(=O)COC(=O)CNC(=O)c2ccc(C)cc2)CC1
COc1ccc(N(CC(=O)NCc2ccco2)C(=O)CCC(=O)Nc2nccs2)c(OC)c1
O=C(CSc1ncn[nH]1)c1cc2ccccc2o1
CCn1cc(/C=N\NC(=O)c2c[nH]c3ccccc23)c(C)n1

Source: PubChem BioAssay AID485313 (National Center for Advancing Translational Sciences (NCATS), 2010)
